Test results: the supplement of paper PMC11417369
± gives the standard deviation of the averaged measurements. Some of the results follow.

Tested on: PfAP2-G AP2 domain (GST-tagged)
Assay: gcPBM binding intensity (ln(normalized median fluorescence intensity)); higher = stronger DNA binding
Outline: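 Each value is the highest Masliner-normalised natural-log median intensity across replicate spots of either orientation of a probe. The probes were primer-extended double-stranded 36-bp intergenic genomic sequences on an Agilent 4 × 180k array, alongside negative controls, exposed for 1 h to GST-tagged P. falciparum DNA-binding domains expressed in E. coli. Bound protein was picked up with Alexa488 anti-GST antibody and scanned at 488 nm.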

Row | Sequence | gcPBM binding intensity (ln)
1 | TTCATTAATGTGTAATGTACTTGTAATATGGGATTA [XGTACX_site3903] | 11.1 ± 0.82
2 | ACAGTATCTGGTAGCTGTACGAGTCGTAGAGTGTAG [XGTACX_site2011] | 11.3 ± 0.83
3 | AATTATTTTATGAAAAGTACACATTGTTTTAATTCT [XGTACX_site4506] | 11.4 ± 0.98
4 | TAAATAAGTATTACTAGTACACACAAGTTGTTAATC [XGTACX_site7074] | 11.3 ± 0.8
5 | CATAAATCAGCCATAACACACATACATAAATACATA [CACACA_site4380] | 10.1 ± 0.13
6 | TTAATTATAATTATATGTACGAACTTTTTTTTTTTT [XGTACX_site6586] | 11.2 ± 0.87
7 | AGAAAAAAGAGGGATACACACAAACATATATATATA [CACACA_site5269] | 10.1 ± 0.25
8 | TGTTCTCTTCTTTTTTATTTTCCAAAGTAATAAGTT [TGCATGCA_negctrl_site424] | 9.875 ± 0.035
9 | TATATATATTTATATGCATGTAATATATTTGTATTG [TGCATGCA_site323] | 9.73 ± 0.16
10 | TTAATTTTTAGAAGAACACACACATATATATTATGA [CACACA_site7969] | 10.1 ± 0.16
11 | CAAAAGCGATACGGCACACATTTCCTGTTTAAATGA [CACACA_site5519] | 10.1 ± 0.15
12 | AAATTGATTATAAATTGTACAAGAACATACAACCTT [XGTACX_site5986] | 10.8 ± 0.38
13 | TTATATTTCAATTAAACATGCATTTTTGTGTAGCAC [TGCATGCA_site214] | 9.805 ± 0.092
14 | TCATATAGATTATACACACACATATATAGATATATA [CACACA_site6587] | 10.1 ± 0.14
15 | TTATATATTTTATTATTTATAATCTTTTTTTTATTT [CACACA_negctrl_site112] | 9.585 ± 0.049
16 | TATTTGTAATATTATACACACATTATGTATTACAAA [CACACA_site3386] | 10.1 ± 0.11
17 | TTTTGTATATTATATGTACACACAATAAGTTAATAT [CACACA_site8207] | 11.5 ± 1
18 | TTATGAATACTTCAAGTGCATTTATTTTATATGACA | 10.2 ± 0.23
19 | ATATTCTAAATAAAGGGTACACAAAAATAATTAAAG [XGTACX_site5529] | 11.6 ± 0.91

Row | Sequence | gcPBM binding intensity (ln)
20 | ATTGTGGATATTCTTACACACAAATTTATATATAAA [CACACA_site2601] | 10.01 ± 0.064
21 | TCCCAATTTATTATGTGTACTTATTATATACATATA [XGTACX_site4033] | 11.5 ± 0.93
22 | TATCAAAGTAGAAGAGATCGATGTCATATTGTGATG [GTGCAC_negctrl_site42] | 9.925 ± 0.021
23 | TATGAACTTTTGGGGGTGCCTTAAAATGTATATTCT | 10.8 ± 0.41
24 | ATATATATATAAAGCAGTACACACATTTATTTTAGA [XGTACX_site7226] | 11.3 ± 0.71
25 | CACAGACACGGACACACACACATATATATATATATA [CACACA_site5248] | 11.4 ± 0.83
26 | ATACACACATATATGTGTACATATACATATATATAT [XGTACX_site6744] | 11.5 ± 0.77
27 | ATAATATGAAGAAGCACACTCAATTAAATACAGATA [CACACA_site4690] | 9.97 ± 0.071
28 | AACAAAATAGGGAACACACACATGTCGATATATAAA [CACACA_site7265] | 10.3 ± 0.2
29 | TTATTTTTTTTAGCATATACAAATATATATATATAT [GTGCAC_negctrl_site4] | 9.81 ± 0.24
30 | CTAAAAGGATGATGAATGCACTATTATTTATATGGA | 9.84
31 | ATAGAATATTTTATTACACACAGAATAATAAAAAAT [CACACA_site6190] | 9.955 ± 0.007
32 | AAGAATTATTTTTTATGTACTTATATGTCAATTTTC [XGTACX_site6676] | 11.3 ± 0.83
33 | TATATAATATATTTATGTACGTATTTAAAAATTTAT [XGTACX_site160] | 11.6 ± 0.98
34 | TGTATTTATTAATGTACACACATGCGTATGTTCGTT [CACACA_site5892] | 11.2 ± 0.76
35 | GAAGGAAATAAATCAACACACATATATTATATATAT [CACACA_site2188] | 9.77 ± 0.057
36 | AAAATTGAAGGTAGAAGTACATATTTATTTCAATAA [XGTACX_site8732] | 11.3 ± 0.86
37 | TTGTGTGAGCAAGTAGTGCATAATATAAATAAAAAA [GTGCAC_site9802] | 10.3 ± 0.25
38 | TGAAATTTGTTATATGCATGTAAAATATTACGACGA [TGCATGCA_site201] | 9.985 ± 0.049

Row | Sequence | gcPBM binding intensity (ln)
39 | CATAAATATTTGTGTTGTACAAATATATATATTTAT [XGTACX_site7363] | 11 ± 0.51
40 | AAATATGTCAAATATACACACATAATAAATATAATA [CACACA_site2310] | 9.84 ± 0.099
41 | TTATAAGATGATTATAAAATCAAATTCATTCTTTTA [CACACA_negctrl_site1338] | 9.385 ± 0.035
42 | TAAACATAACAAAGGAGTACAAAACTTGATCAGTTC [XGTACX_site3114] | 11.3 ± 0.81
43 | AAAAAACAAAAAAATACACACATAAAAAGGTTTTAG [CACACA_site3584] | 9.91 ± 0.18
44 | ATACTATAATAATACACACTCATTAGATATATAAAG [CACACA_site7787] | 9.99 ± 0.12
45 | TATGTATAAAAATAATGTACAAAATATATTATATGT [XGTACX_site2794] | 10.9 ± 0.4
46 | ATCTTAGTTGAAATATAGAATTTATAATAAAAGTTA [GTGCAC_negctrl_site122] | 9.595 ± 0.064
47 | TGTACAAATATGTACACACACACATATTTATTTATA [CACACA_site6419] | 11.5 ± 0.95
48 | AACATCAAAATATGCACACAAACAATTAGCGGTAGT [CACACA_site2521] | 10.21 ± 0.042
49 | GATTTACATTTTGATGAAAATAATAAAATGTGGAAA [TGCATGCA_negctrl_site409] | 10 ± 0.11
50 | ATATTTTATTTTTAAAGTACAAAAGAAAAGAATAAT [XGTACX_site8247] | 11.1 ± 0.77
51 | AAAAAAAAAGACAAAAGTACAAAGGTTCATAATTTA [XGTACX_site3978] | 11 ± 0.61
52 | CTTATATTTGGACACACACACAATAAAATGAAAAAA [CACACA_site6614] | 10.8 ± 0.64
53 | AAATCTTCATAATAAAGTACTTAACTCTTGGTGTTA [XGTACX_site6112] | 10.9 ± 0.52
54 | TACACAAGAAAATTCACACACACACCGATATATATA [CACACA_site6008] | 9.9 ± 0.16
55 | AAAAAAAAAAAAAAAACATGCAGTTAGTGGTTTTTT [TGCATGCA_site243] | 10.31 ± 0.078
56 | TAACAATTATGCTGGTGTACGTTTGAAATTGGGTAT [XGTACX_site6846] | 11.3 ± 0.8
57 | AAAAATTTCTATTTTTGTACTTACTTTTTAGTAATA [XGTACX_site5236] | 11.3 ± 0.96
